From PubChem BioAssay AID1768 (National Center for Advancing Translational Sciences (NCATS), 2009)
In all, about 270,000 compounds went through this assay and about 620 (0.23%) were called active. The inconclusive results got no clear call from the source; some entries with a clear call stand among them for comparison. Calls follow the shape of the dose curve; as a rule, active = well fitted inhibition curve with a large enough effect in the polarisation, with a control signal flat (not every such curve was filed as active); inconclusive = small, poorly fitted or top-dose-only effect, or effect the other way, or a change in a side signal; inactive = no such curve, though single readings can be large or run the other way; the % refers to the polarisation. Where the call is inconclusive, the potency comes from a doubtful curve fit. A note “side channel” means that the fit belongs to a control or component signal, not to the main read-out.

Target: Menin (Homo sapiens) (UniProt O00255)
UniProt O00255, sequence (O00255 whole entry, looked up): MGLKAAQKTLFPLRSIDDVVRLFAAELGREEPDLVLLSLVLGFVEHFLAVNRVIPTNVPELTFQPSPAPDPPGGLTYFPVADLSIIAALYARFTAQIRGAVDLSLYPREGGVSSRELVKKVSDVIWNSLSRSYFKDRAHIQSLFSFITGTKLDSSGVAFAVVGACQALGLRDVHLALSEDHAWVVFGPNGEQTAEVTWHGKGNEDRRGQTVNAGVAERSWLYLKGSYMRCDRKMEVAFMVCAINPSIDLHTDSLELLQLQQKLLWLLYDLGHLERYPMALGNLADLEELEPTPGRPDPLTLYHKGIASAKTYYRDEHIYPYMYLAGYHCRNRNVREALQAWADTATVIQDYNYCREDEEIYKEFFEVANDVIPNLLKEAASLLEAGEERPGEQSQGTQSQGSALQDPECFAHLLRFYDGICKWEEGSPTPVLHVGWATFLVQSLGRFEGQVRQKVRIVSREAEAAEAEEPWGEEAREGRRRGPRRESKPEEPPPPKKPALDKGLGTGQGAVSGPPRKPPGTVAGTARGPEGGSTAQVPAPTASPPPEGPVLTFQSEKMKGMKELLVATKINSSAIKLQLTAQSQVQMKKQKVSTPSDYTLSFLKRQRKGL
Assay: qHTS Assay for Inhibitors Targeting the Menin-MLL Interaction in MLL Related Leukemias: Competition With Texas Red Labeled MLL-derived Mutant Peptide; as to FP activity change, negative = inhibition: % of control where 0% means no effect
Details: fluorescence polarization; FP activity change, negative = inhibition: at 61.6 µM (top of the series)
Potency is read from the fitted curve at half-maximal effect; tags tell the direction and shape of the fitted curve or compound fluorescence and quenching.

Potency, inconclusive:
Cc1ccc(-c2csc3nnc(SCC(=O)NCc4ccc5c(c4)OCO5)n23)cc1 3.55 µM [inhibitor, single point]
Cc1cc2ccccc2n1CCNC(=O)Cc1cccc2ccccc12 39.8 µM [fluorescent, side channel, single point]
CCOC1=C/C(=C/c2c(N)n3nc(-c4ccccc4)sc3nc2=O)C=CC1=O 35.5 µM [quencher, single point]
CC1CCCCN1C(=O)c1cccc(NC(=O)c2ccccc2)c1 (configuration not stated) 22.4 µM [inhibitor, partial curve]
CCOC(=O)c1[nH]c2ccc(OC)cc2c1NC(=S)N1CCN(c2ccc(F)cc2)CC1 7.08 µM [quencher, side channel, partial curve]
COc1ccccc1[C@@H]1C(c2ccc(F)cc2)=NN(c2ccccc2)[C@H]1C(=O)N1CCOC1=O 2.82 µM [quencher, side channel, full curve]
CC(=O)Nc1ccc(S(=O)(=O)N2CCC(c3nc4c(nnn4Cc4ccccc4Cl)c(=O)[nH]3)CC2)cc1 17.8 µM [quencher, side channel, partial curve]
O=C1N(c2ccccc2)C2CS(=O)(=O)CC2N1c1ccc(Cl)c(Cl)c1 (configuration not stated) 8.91 µM [quencher, side channel, full curve]
COc1ccccc1OCc1ccc(C(=O)Nc2ccccc2F)cc1 39.8 µM [inhibitor, single point]
Cc1c(NC(=O)C(=O)/C=C(\O)c2ccc(Br)cc2)c(=O)n(-c2ccccc2)n1C 20 µM [fluorescent, side channel, partial curve]
CCOC(=O)/C(N=Nc1ccc(F)cc1)=C(/O)c1ccc([N+](=O)[O-])cc1 31.6 µM [quencher, side channel, single point]
Cc1cc2cc(NC(=O)c3ccco3)ccc2[nH]1 14.1 µM [quencher, side channel, partial curve]
O=c1/c(=C/c2ccco2)sc2nc(-c3ccccc3Br)nn12 12.6 µM [quencher, side channel, partial curve]
NC(=O)c1ccc([N+](=O)[O-])cc1SCc1ccccc1 20 µM [quencher, side channel, partial curve]
CN(C)c1ccnc2sc(C(=O)c3ccc(Br)cc3)c(N)c12 2.51 µM [quencher, side channel, partial curve]
O=C(Nc1nnc(-c2cccs2)o1)c1cccc(C(F)(F)F)c1 31.6 µM [quencher, side channel, single point]
COc1ccc(-c2cc(C(F)(F)F)nc(N3CCN(C)CC3)n2)cc1OC 39.8 µM [inhibitor, single point]
COc1ccc(C(=O)NCCNc2nc3cc(C)c(C)cc3cc2C)cc1 5.01 µM [fluorescent, side channel, full curve, poor fit]
CCOc1ccccc1C(=O)Nc1nnc(SCC(=O)Nc2cc(C)on2)s1 31.6 µM [fluorescent, side channel, single point]
N#CC1=C(N)NC(SCC(=O)Nc2ccc(Br)cc2)=C(C#N)C12CCCCC2 25.1 µM [quencher, side channel, partial curve]
Cc1ccc(-c2cc(C(=O)Nc3ccc(S(=O)(=O)Nc4nc(C)cc(C)n4)cc3)c3ccccc3n2)cc1 3.16 µM [quencher, side channel, full curve, poor fit]
O=[N+]([O-])c1cccc(/C=N/N=C\c2ccccc2)c1 28.2 µM [quencher, side channel, single point]
O=C(NC(=S)Nc1ccc(N2CCCCC2)cc1)c1cccs1 17.8 µM [quencher, side channel, single point]
Cc1cccc(N2CCN(C(=O)Cc3ccc(Br)cc3)CC2)c1C 3.98 µM [fluorescent, side channel, full curve]
CC(=O)OCCCNc1cc(Sc2nc3ccccc3s2)c2nonc2c1[N+](=O)[O-] 12.6 µM [quencher, side channel, single point]
O=C(Nc1cccc(NC(=O)c2ccc(Br)cc2)c1)c1ccccc1 39.8 µM [fluorescent, side channel, single point]
O=[N+]([O-])c1ccc2c(c1)[nH]c(=S)n2-c1ccccc1 39.8 µM [quencher, side channel, single point]
CCOc1cc(/C=N/O)ccc1OS(=O)(=O)c1ccc(C)cc1 25.1 µM [quencher, side channel, single point]

Potency, active:
COc1ccc(N2CCN(CC(O)COc3ccc(F)cc3)CC2)cc1 (configuration not stated) 20 µM
COc1ccc(N2CCN(C(=O)c3cc4cc(Cl)ccc4[nH]3)CC2)cc1 31.6 µM

FP activity change, negative = inhibition, inactive:
COCCCNC(=O)c1ccc(Cn2c(=O)c3ccccc3n(Cc3ccc(C)cc3)c2=O)cc1 -9.7%
CCOC(=O)c1nnn(-c2nonc2N)c1-c1ccc(Cl)cc1 -7.36%
COc1cccc(/C=C/C2=CC3(C)CC2(C)C(c2cccc(OC)c2)CC3=O)c1 (configuration not stated) 9.66% [at 11.7 µM]
COc1cccc(-c2nc(N(C)Cc3ccco3)c3ccccc3n2)c1 9.25%
COc1ccc(CNc2ncnc3ccc(-c4c(C)noc4C)cc23)c(OC)c1 -14.5%
Cc1nc2ccccc2c(=O)n1Cc1ccc([N+](=O)[O-])cc1 -0.0877%
CSCCC(NC(=O)OC(C)(C)C)C(=O)Oc1ccc2c(=O)c(-c3ccc4c(c3)OCCO4)coc2c1 (configuration not stated) 0.534%
